{"source": "PubChem BioAssay AID1461", "about": "(National Center for Advancing Translational Sciences (NCATS), 2008)", "note": "About 2,300 (1%) of roughly 220,000 compounds were called active. This list was built around the results that the source calls inconclusive (neither active nor inactive); the mix of calls is not that of the screen. Calls follow the shape of the dose curve; as a rule, active = well fitted inhibition curve with a large enough effect; inconclusive = small, poorly fitted or top-dose-only effect, or effect the other way; inactive = no such curve, though single readings can be large or run the other way. Potencies of inconclusive entries are left out as doubtful fits. % is scaled to controls: 0 for no effect and ±100 for the full control effect; potency is read from the fitted curve at half-maximal effect; tags tell the direction and shape of the fitted curve.", "data": [{"biological_target": "Neuropeptide S receptor (Homo sapiens) (UniProt Q6W5P4)", "sequence (Q6W5P4 whole entry, looked up)": "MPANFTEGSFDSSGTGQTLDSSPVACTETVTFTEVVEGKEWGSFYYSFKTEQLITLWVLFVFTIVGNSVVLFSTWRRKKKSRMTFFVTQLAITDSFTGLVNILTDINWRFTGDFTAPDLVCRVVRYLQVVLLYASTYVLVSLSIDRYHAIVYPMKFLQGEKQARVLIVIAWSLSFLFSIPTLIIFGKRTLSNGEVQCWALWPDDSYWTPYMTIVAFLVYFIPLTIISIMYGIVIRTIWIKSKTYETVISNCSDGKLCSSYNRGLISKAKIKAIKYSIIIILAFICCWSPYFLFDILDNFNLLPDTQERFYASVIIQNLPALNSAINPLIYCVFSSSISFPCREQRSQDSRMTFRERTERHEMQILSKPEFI", "assay": "qHTS Assay for Antagonists of the Neuropeptide S Receptor: cAMP Signal Transduction; also: nearly all actives have a fitted effect of over 50% in size", "conditions": "CHO-NPSR cells, cAMP TR-FRET, antagonist mode; activity change, negative = inhibition: at 38.3 µM (top of the series) unless noted", "values": [{"smiles": "O=C(CN1CCCCC1)Nc1cc(Cl)ccc1Oc1ccccc1", "Potency": "inconclusive [inhibitor, single point]"}, {"smiles": "CCCn1cnc2c(sc3nc4c(cc32)CSC(C)(C)C4)c1=O", "Potency": "inactive"}, {"smiles": "Cc1ccc(NC(=O)CSc2nnc(-c3ccncc3)n2C)cc1S(=O)(=O)N1CCOCC1", "Potency": "inactive"}, {"smiles": "O=C(COC(=O)c1ccc(NS(=O)(=O)c2cccs2)cc1)NCC1CCCO1", "note": "(stereo not drawn)", "Potency": "inactive"}, {"smiles": "O=C(Nc1scc(-c2cccs2)c1C(=O)O)c1cccs1", "Potency": "inactive"}, {"smiles": "Cc1ccc(C)c(CN2C(=O)c3ccccc3S(=O)c3ccc(C(=O)N4CCN(c5ccccn5)CC4)cc32)c1", "note": "(stereo not drawn)", "Potency": "active: 7.94 µM"}, {"smiles": "CC(C)c1nc2c(c(=O)c3ccccc3n2C)c(=O)n1CCc1ccccc1", "Potency": "inconclusive [activator, partial curve]"}, {"smiles": "Cc1cc(C)cc(-n2c(C)cc(C(=O)CSc3nnnn3C)c2C)c1", "Potency": "inconclusive [inhibitor, single point]"}, {"smiles": "CN1C(=O)SC(Nc2ccc(F)cc2)C1=O", "note": "(stereo not drawn)", "Potency": "inconclusive [activator, single point]"}, {"smiles": "C=CCN1C(c2ccc(OCC)cc2)=CS/C1=C(\\C#N)c1nnc2n1CCCCC2", "Potency": "inconclusive [inhibitor, partial curve, poor fit]"}, {"smiles": "Cn1c(=O)n(Cc2ccc(F)cc2)c(=O)c2c1nc1n2CCCN1C1CCCCC1", "Potency": "inconclusive [inhibitor, single point]"}, {"smiles": "Cc1cc(C)c(NC(=O)/C(=C/c2ccco2)c2ccccc2)c(C)c1", "Potency": "inconclusive [inhibitor, single point]"}, {"smiles": "CCc1ccc(NC2=NCC(=O)N2Cc2ccc3c(c2)OCO3)cc1", "Potency": "inconclusive [inhibitor, partial curve, poor fit]"}, {"smiles": "CCOc1nonc1C(=N)/C(C(C)=O)=C(\\C)O", "Potency": "inactive"}, {"smiles": "COc1cc2[nH]c(=O)n(CCCCCC(=O)N3CCN(c4ccccc4)CC3)c(=O)c2cc1OC", "Potency": "inconclusive [inhibitor, single point]"}, {"smiles": "CC(C)CC(=O)NC(=S)Nc1ccc(S(=O)(=O)N2CCCC2)cc1", "Potency": "inactive"}, {"smiles": "O=C(Nc1cnn(C23CC4CC(CC(C4)C2)C3)c1)c1cnn2c(C(F)(F)F)cc(-c3ccco3)nc12", "Potency": "active: 7.94 µM"}, {"smiles": "COc1ccc(N(C)S(=O)(=O)c2cccc3cccnc23)c(OC)c1", "Potency": "inactive"}, {"smiles": "CC(C)(C)c1ccc(-c2csc(NNC3=NCCCCC3)n2)cc1", "Potency": "inconclusive [inhibitor, single point]"}, {"smiles": "Cc1ccc(NC(=S)NCCSc2ccc(Cl)cc2)cc1", "Potency": "inconclusive [inhibitor, single point]"}, {"smiles": "COc1ccc(CNc2ncnc(N)n2)cc1", "Potency": "inactive"}, {"smiles": "CCCCCCCCNC(C)C(O)c1ccc(SC(C)C)cc1", "note": "(stereo not drawn)", "Potency": "inconclusive [inhibitor, single point]"}, {"smiles": "CN(C)CCCNS(=O)(=O)c1ccc(N2CCC(c3ccc(Cl)cc3)=N2)cc1", "Potency": "inconclusive [inhibitor, single point]"}, {"smiles": "CC(=O)NS(=O)(=O)c1ccc(NC(=O)c2ccc3c(c2)C(=O)N(CCC(C)C)C3=O)cc1", "Potency": "inactive"}, {"smiles": "Cc1ccc(-c2nnn(CC(=O)N(Cc3ccccc3)C(C(=O)NC3CCCC3)c3ccncc3)n2)o1", "note": "(stereo not drawn)", "Potency": "inconclusive [inhibitor, partial curve]"}, {"smiles": "CCCCn1c(NC(=O)c2ccc(Br)o2)c(S(=O)(=O)c2ccccc2)c2nc3ccccc3nc21", "Potency": "active: 10 µM"}, {"smiles": "CCC1(O)CC2CN(CCc3c([nH]c4ccccc34)[C@@](C(=O)OC)(c3cc4c(cc3OC)N(C=O)C3[C@]45CCN4CC=C[C@@](CC)([C@@H](OC(C)=O)[C@]3(O)C(=O)OC)[C@H]45)C2)C1", "note": "(stereo partly drawn)", "Potency": "inconclusive [activator, full curve]"}, {"smiles": "O=C(Nc1nnc(-c2ccccc2)o1)c1nc2ccccc2s1", "Potency": "inconclusive [inhibitor, single point]"}, {"smiles": "COc1cc(CC(=O)Nc2ccc(S(=O)(=O)N(C)C)cc2)cc(OC)c1OC", "Potency": "inactive"}, {"smiles": "c1coc(CN(Cc2ccco2)c2ncnc3c2oc2ccccc23)c1", "Potency": "inconclusive [inhibitor, full curve]"}, {"smiles": "COC(=O)c1ccc(C2/C(=C(/O)c3ccc(OC(C)C)cc3)C(=O)C(=O)N2c2cc(C)on2)cc1", "note": "(stereo not drawn)", "Potency": "inactive"}, {"smiles": "Cc1ccc(CS/C(Nc2ccccc2C)=C(\\C#N)C(N)=O)c(C)c1", "Potency": "inconclusive [inhibitor, single point]"}, {"smiles": "Cc1ccc2cc(C)c(Sc3nnnn3-c3ccccc3)nc2c1", "Potency": "inactive"}, {"smiles": "O=C(Nc1ccc(Cl)cc1Cl)NC1CCN(S(=O)(=O)c2ccc(F)cc2)CC1", "Potency": "inconclusive [inhibitor, single point]"}, {"smiles": "Cn1c2ccccc2c(=O)c2c(=O)n(-c3ccccc3)c(C3CCCCC3)nc21", "Potency": "inactive"}, {"smiles": "CC1CCN(c2nc3c(c(=O)n(C)c(=O)n3C)n2Cc2ccccc2)CC1", "Potency": "inconclusive [inhibitor, single point]"}, {"smiles": "COc1cccc(NC(=O)c2nn(C34CC5CC(CC(C5)C3)C4)cc2[N+](=O)[O-])c1", "Potency": "inconclusive [inhibitor, partial curve]"}, {"smiles": "CCOc1ccc2nc(C)cc(C(=O)O)c2c1", "Potency": "inactive"}, {"smiles": "COc1ccccc1Nc1nc(NCc2ccco2)c2ccccc2n1", "Potency": "inconclusive [inhibitor, single point]"}, {"smiles": "O=C(OCn1ncc(Cl)c(Cl)c1=O)c1ccccc1Cl", "Potency": "active: 5.01 µM"}, {"smiles": "S=C1NCCc2ccc(Cl)cc2C1c1ccccc1Cl", "note": "(stereo not drawn)", "Potency": "inactive"}, {"smiles": "CCCCC1S/C(=N/N=C/c2ccco2)NC1=O", "note": "(stereo not drawn)", "Potency": "inactive"}, {"smiles": "Cc1c(C(=O)N2CCOCC2)oc2c1C(=O)CC(C)(C)C2", "Potency": "inactive"}, {"smiles": "Cc1ccc(-c2nc3ccccc3s2)cc1S(=O)(=O)N1CCCC1", "Potency": "inconclusive [inhibitor, single point]"}, {"smiles": "Cc1nn(-c2cccc(Cl)c2)c2c1C(c1ccncc1)C(C#N)=C(N)O2", "note": "(stereo not drawn)", "Potency": "inconclusive [inhibitor, single point]"}, {"smiles": "CCCCCCCCOc1ccc(C2OC34CCCCC3C(C#N)(C#N)C2(C#N)C(=N)O4)cc1", "note": "(stereo not drawn)", "Potency": "inactive"}, {"smiles": "N#CCSc1nc2sc3c(c2c(=O)n1C1CCCCC1)CCCC3", "Potency": "inconclusive [inhibitor, partial curve, poor fit]"}, {"smiles": "CSc1cccc(CN2CCC(CO)(Cc3cccc(C(F)(F)F)c3)CC2)c1", "Potency": "inconclusive [activator, single point]"}, {"smiles": "COc1cccc(-c2cc(C(=O)Nc3nc4ccccc4s3)c3ccccc3n2)c1", "Potency": "inactive"}, {"smiles": "O=S(=O)(c1cccc(-c2nnco2)c1)N1CCCC1", "Potency": "inactive"}, {"smiles": "CCOC(=O)c1sc(NC(=O)c2cccc(S(=O)(=O)N3CCN(C)CC3)c2)cc1C", "Potency": "inconclusive [inhibitor, full curve, poor fit]"}, {"smiles": "O=C(Nc1ccccc1-c1ccccc1)C12CC3CC(CC(C3)C1)C2", "Potency": "inconclusive [inhibitor, single point]"}, {"smiles": "Cc1ccc(-n2c(Cl)c(Cl)nc(Cl)c2=O)cc1", "Potency": "active: 10 µM"}, {"smiles": "O=C(CSc1nc2ccccc2n1-c1ccccc1)Nc1ncc(Cl)cc1Cl", "Potency": "inactive"}, {"smiles": "O=C1N=c2ccccc2=C1c1sc(=O)[nH]c1O", "Potency": "inconclusive [activator, partial curve]"}, {"smiles": "O=C1NC[C@@H](Cc2cccc3ccccc23)N(CC2(c3ccccc3)CC2)C1=O", "Potency": "inconclusive [inhibitor, single point]"}, {"smiles": "Cc1c(NC(=O)c2cc(=O)[nH]c(=O)[nH]2)c(=O)n(-c2ccccc2)n1C", "activity change, negative = inhibition": "inactive: 19.6% [at 7.67 µM]"}, {"smiles": "COc1ccc(N=c2sc3ccccc3n2C)cc1", "Potency": "inconclusive [inhibitor, single point]"}, {"smiles": "O=C(CSc1ncnc2c1oc1ccccc12)NCc1ccco1", "Potency": "inconclusive [activator, single point]"}, {"smiles": "CCOC(=O)c1nnc(-c2ccccc2)nc1Sc1c(Cl)cccc1Cl", "Potency": "inconclusive [inhibitor, single point]"}, {"smiles": "COC(=O)c1sccc1NC(=O)c1ccc(Br)s1", "Potency": "inconclusive [inhibitor, single point]"}, {"smiles": "O=C(/C=C/c1cccc(Cl)c1)NCc1ccncc1", "Potency": "inconclusive [activator, full curve, poor fit]"}, {"smiles": "O=C(Oc1ccccc1)c1cc2ccccc2oc1=O", "Potency": "inconclusive [inhibitor, single point]"}, {"smiles": "CC(C)NC(=O)NC(=O)CSc1nnc(COc2ccccc2F)n1C(C)C1CC2CCC1C2", "note": "(stereo not drawn)", "Potency": "inconclusive [inhibitor, single point]"}, {"smiles": "Cc1cccc(N2CCN(S(C)(=O)=O)CC2)c1C", "Potency": "inconclusive [activator, partial curve]"}, {"smiles": "Cc1ccc(-c2nc3cc(C)ccc3o2)cc1", "Potency": "inactive"}, {"smiles": "CCOC(=O)COc1c(OC)cc(Cl)cc1C1Nc2ccccc2C(=O)N1c1ccccc1", "note": "(stereo not drawn)", "Potency": "inconclusive [inhibitor, partial curve]"}, {"smiles": "CCOC(=O)c1sc2nc(C3CC3)cc(-c3ccc(F)cc3)c2c1N", "Potency": "inactive"}, {"smiles": "CCOC(=O)N1CCN(Cc2nc(-c3cccs3)no2)CC1", "Potency": "inactive"}, {"smiles": "O=C(NCc1ccc(F)cc1)c1cc2sccc2n1Cc1ccc(F)cc1", "Potency": "inconclusive [inhibitor, single point]"}, {"smiles": "Cc1ccc(OCC(=O)N2CC3(C)CC2CC(C)(C)C3)cc1", "note": "(stereo not drawn)", "Potency": "inactive"}, {"smiles": "COC(=O)CCC(=O)Nc1sc(C)c(C)c1C(N)=O", "Potency": "inactive"}, {"smiles": "COc1ccc(/C=C/C(=O)Nc2cccc(S(=O)(=O)NC3=NCCCCC3)c2)cc1", "Potency": "inconclusive [inhibitor, single point]"}]}]}
